# According to PubChem BioAssay AID651820 (National Center for Advancing Translational Sciences (NCATS), 2012):
# Where “and” joins values, the source holds several entries; their conditions need not be identical. Equal entries are not always repeated. About 12,000 (3.5%) of roughly 340,000 compounds were called active. Inconclusive means that the source gave no clear call. Such entries were picked first, then a sample of the others. Calls come from the whole dose curve; as a rule, active = well fitted inhibition curve with a large enough effect; inconclusive = small, poorly fitted or top-dose-only effect, or another doubt; inactive = no such curve, though single readings can be large or run the other way. Potencies beside an inconclusive call are fits to weak or partial responses and may not hold up.
# Test: qHTS Assay for Inhibitors of Hepatitis C Virus (HCV)
# Conditions: Huh7.5.1 HCVcc-Cre (HCVcc is cell-culture hepatitis C virus) infection, luciferase reporter, 44 h; activity change, negative = inhibition: at 41.8 µM (top of the series) unless noted
# How it was run: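 Compounds are dispensed onto cells plated 4 h earlier at 1,000 per well, with HCVcc-Cre virus (about 0.5 moi) added next. Following 44 h of culture, luminescent signal is measured for 15 sec after 15 min with substrate at room temperature.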
# % is set by controls: 0 for no effect and ±100 for the full control effect; potency is the fitted concentration of half-maximal effect; tags give direction and shape of the fitted curve.
SMILES,"activity change, negative = inhibition",Potency
COc1cccc(NC(=S)NCc2cccnc2)c1,inactive: 8.71%,–
C=C1CCN([C@@H](Cc2ccccc2)C(=O)NCCCc2ccccc2)S(=O)(=O)c2ccccc21,–,"inconclusive: 31.6 µM [inhibitor, single point]"
CC(C)(C)C(=O)CN1CCN(C2c3ccccc3-c3ccccc32)CC1,–,"inconclusive: 3.16 µM [inhibitor, partial curve]"
CCOC(=O)c1sc2nc(C)nc(Nc3ccc(OC)c(OC)c3)c2c1C,–,"inconclusive: 20 µM [inhibitor, single point]"
COc1cccc(NC(=O)N2CCN(c3cccc(C)c3)C(C)C2)c1 (stereo not given),–,"inconclusive: 31.6 µM [inhibitor, single point]"
O=C(Nc1ccc(Br)cc1)c1cc([N+](=O)[O-])cc([N+](=O)[O-])c1,–,"inconclusive: 7.08 µM [inhibitor, partial curve]"
CCOC(=O)c1cnc(-n2nc(C)cc2C)nc1NC1CCCCC1,–,active: 5.62 µM
COc1ccc(S(=O)(=O)N2CC(O)C[C@H]2C(=O)OCC(=O)N2CCCCCC2)cc1 (stereo not given in full),inactive: 5.04%,–
CCc1cccc(C)c1NC(=O)CN(C)Cc1ccccc1F,inactive: -3.46%,–
CC(=O)c1ccc(N2C(=O)C3C(C2=O)C(C(=O)c2ccc(Cl)cc2)N2CCCC32)cc1 (stereo not given),inactive: -16.6%,–
CC1(C)Cc2c(c(N3CCOCC3)nc3sc4c(NCc5ccco5)nnnc4c23)CS1,–,"inconclusive: 20 µM [inhibitor, partial curve, poor fit] and inconclusive: 7.08 µM [inhibitor, partial curve]"
Fc1cc(F)c2nc(N3CCCCC3)sc2c1,inactive: 0.963%,–
CSc1cccc(NC(=O)CN(C)S(=O)(=O)c2ccccc2)c1,inactive: -11.3%,–
O=C(CCCCCn1c(=O)[nH]c2ccccc2c1=O)N1CCN(Cc2ccc3c(c2)OCO3)CC1,–,"inconclusive: 11.2 µM [inhibitor, partial curve]"
O=C(NCCC1CCCCN1S(=O)(=O)c1cccs1)C(=O)NCc1ccccc1 (stereo not given),–,"inconclusive: 11.2 µM [inhibitor, partial curve]"
C/C(=N/Nc1nc(-c2ccccc2F)nc2ccccc12)c1ccccc1O,–,"inconclusive: 11.2 µM [inhibitor, partial curve]"
O=C(CSc1n[nH]c(-c2ccccc2)n1)Nc1ccc(Br)cn1,–,"inconclusive: 2.51 µM [inhibitor, full curve]"
O=C(CNC(=O)c1ccc(Br)cc1)c1ccc(Br)cc1,inactive: 5.95%,–

SMILES,"activity change, negative = inhibition",Potency
Cc1[nH]c2ccccc2c1C(=O)/C=C/c1ccccc1,–,"inconclusive: 31.6 µM [inhibitor, single point]"
O=S(=O)(c1cccs1)N1CCN(Cc2nc3ccccc3s2)CC1,–,"inconclusive: 31.6 µM [inhibitor, single point]"
CC(=O)NCCCc1nc2ccccc2n1Cc1ccccc1F,inactive: 5.25%,–
Cc1cc(N2CCOCC2)nc2ccc(NC(=S)NC(C)C)cc12,–,"inconclusive: 1.12 µM [inhibitor, partial curve]"
O=C(NNC1CC(=O)N(c2ccc(Cl)cc2)C1=O)c1ccccc1Cl (stereo not given),–,"inconclusive: 3.55 µM [inhibitor, single point]"
COc1ccccc1NC(=S)NC(=O)c1ccc(Cn2cc(Br)cn2)cc1,–,"inconclusive: 2.24 µM [inhibitor, full curve]"
CC(=O)c1c(C(C)=O)c(C)n(-c2nc(-c3ccc(Br)cc3)c(C)s2)c1C,–,"inconclusive: 22.4 µM [inhibitor, single point]"
O=C(CSc1ncccn1)NCCC1=CCCCC1,–,"inconclusive: 0.562 µM [inhibitor, partial curve, poor fit]"
O=C(CSc1nc(Nc2ccccc2)nc(N2CCOCC2)n1)Nc1ccc(Br)cc1F,–,"inconclusive: 10 µM [inhibitor, partial curve]"
COc1ccc(NS(=O)(=O)c2ccc(C)c(C(=O)N(C)Cc3ccc(OC)cc3OC)c2)cc1,–,"inconclusive: 7.94 µM [inhibitor, partial curve]"
CCOc1ccccc1/C=N\Nc1cnn(Cc2ccccc2)c(=O)c1Cl,–,"inconclusive: 20 µM [inhibitor, single point]"
CCc1ccccc1Nc1nc(N)nc(COC(=O)c2cccn2C)n1,–,"inconclusive: 11.2 µM [inhibitor, single point]"
O=c1c(O)c(-c2cc(O)c(O)c(O)c2)oc2cc(O)cc(O)c12,inactive: -19.4%,–
CC(=O)N1CCC(=NNc2ccc(S(=O)(=O)N3CCOCC3)cc2[N+](=O)[O-])CC1,–,"inconclusive: 2.24 µM [inhibitor, single point]"
CCN(CC)CCCNc1cc(C(F)(F)F)c(C#N)c2nc3ccccc3n12,–,"inconclusive: 12.6 µM [inhibitor, single point]"
Cc1cc(C)nc(N2CCC(C(=O)Nc3cccc(C(F)(F)F)c3)CC2)n1,–,"inconclusive: 7.94 µM [inhibitor, partial curve]"
CCC(C(=O)Nc1cc(F)ccc1F)n1nc(C)c2c(C)n(-c3ccc(C)cc3)nc2c1=O (stereo not given),–,active: 8.91 µM
